Reference: the supplement of paper PMC4604168 (melanoma cell lines)
The other results are listed elsewhere or left out. Many values rest on one well or one pass, so single values are uncertain.

Legend:
Assay in all cases: cell count relative to DMSO control; melanoma cells; higher = more viable cells
Conditions in all cases: library dose: standard library concentration; 72 h
[1] = test system: G361
[2] = test system: IPC-298
[3] = test system: IST-MEL1
[4] = test system: LB2518-MEL
[5] = test system: LOXIMVI
[6] = test system: MEL-HO
[7] = test system: MZ2-MEL
[8] = test system: MeWo
[9] = test system: RPMI7951
[10] = test system: RVH-421
[11] = test system: SkMel28
[12] = test system: SkMel2
[13] = test system: SkMel30
[14] = test system: SkMel5
[15] = test system: UACC257
[16] = test system: UACC62
[17] = test system: WM115
[18] = test system: WM1716
[19] = test system: WM1745
[20] = test system: WM3526
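Also: cells treated in 1,536-well plates, then fixed and DAPI-stained, with nuclei counted from automated high-throughput microscope images.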

Structure (SMILES)	cell count [1]	cell count [2]	cell count [3]	cell count [4]	cell count [5]	cell count [6]	cell count [7]	cell count [8]	cell count [9]	cell count [10]	cell count [11]	cell count [12]	cell count [13]	cell count [14]	cell count [15]	cell count [16]	cell count [17]	cell count [18]	cell count [19]	cell count [20]
C[C@]1(O)C[C@@H](c2nc(-c3ccc4ccc(-c5ccccc5)nc4c3)c3c(N)nccn32)C1 + OCCn1cc(-c2cnc3nnn(Cc4ccc5ncccc5c4)c3n2)cn1 [PF04217903] (first compound 2 µM, partner dose 5 µM)	99.1%	105%	100%	96.9%	86.4%	90.4%	141%	81.7%	123%	123%	109%	65.8%	110%	67.8%	99.6%	108%	90.9%	96.1%	56.7%	77.1%
Cn1cnc2c(F)c(Nc3ccc(Br)cc3Cl)c(C(=O)NOCCO)cc21 [selumetinib] + CN1CCN(c2ccc3nc(-c4c(N)c5c(F)cccc5[nH]c4=O)[nH]c3c2)CC1 [Dovitinib] (first compound 0.075 µM, partner dose 0.5 µM)	33.8%	31.5%	45.8%	31%	82.3%	50%	21.8%	30.9%	75.4%	71.3%	26.5%	21.4%	37.6%	47%	65.7%	47.6%	40.1%	66.1%	49.2%	37.8%
Cn1cnc2c(F)c(Nc3ccc(Br)cc3Cl)c(C(=O)NOCCO)cc21 [selumetinib] + CC(C)C[C@H](NC(=O)[C@H](Cc1ccccc1)NC(=O)c1cnccn1)B(O)O [Bortezomib] (first compound 0.075 µM, partner dose 0.005 µM)	0.733%	8.18%	10.5%	1.44%	21.9%	16.1%	4.69%	13.3%	5.54%	0.846%	27.5%	29.6%	23.2%	26.5%	78.2%	41.1%	37.4%	14.7%	23.1%	23.4%
Cn1cnc2c(F)c(Nc3ccc(Br)cc3Cl)c(C(=O)NOCCO)cc21 [selumetinib] + CS(=O)(=O)CCNCc1ccc(-c2ccc3ncnc(Nc4ccc(OCc5cccc(F)c5)c(Cl)c4)c3c2)o1 [lapatinib] (first compound 0.075 µM, partner dose 4 µM)	49.5%	54.4%	72.7%	52.6%	114%	79.9%	69.1%	68.2%	75.6%	138%	44.8%	54.9%	57.3%	57.6%	99.9%	34%	73.4%	70.4%	61.7%	58.8%
COc1cc([C@@H]2c3cc4c(cc3[C@@H](O[C@@H]3O[C@@H]5CO[C@@H](C)O[C@H]5[C@H](O)[C@H]3O)[C@H]3COC(=O)[C@H]23)OCO4)cc(OC)c1O [etoposide] + CN(c1ncccc1CNc1nc(Nc2ccc3c(c2)CC(=O)N3)ncc1C(F)(F)F)S(C)(=O)=O [PF562271] (first compound 0.1 µM, partner dose 0.4 µM)	67.6%	63%	93.7%	62.9%	75.2%	82.6%	54.3%	84.2%	49.1%	73.3%	72.9%	58.5%	85%	66%	73.1%	59.1%	65.6%	50.4%	75.4%	98.8%
CCN(CC)CCNC(=O)c1c(C)[nH]c(/C=C2\C(=O)Nc3ccc(F)cc32)c1C [sunitinib] + O=C(CCCCCCC(=O)Nc1ccccc1)NO [vorinostat] (first compound 2 µM, partner dose 0.4 µM)	68%	77%	90%	50.3%	80.6%	84.4%	108%	52.8%	34.1%	93.2%	42.9%	56.4%	60.7%	55.5%	75.5%	66.7%	59.4%	111%	33%	54.9%
Cn1cnc2c(F)c(Nc3ccc(Br)cc3Cl)c(C(=O)NOCCO)cc21 [selumetinib] + CS(=O)(=O)c1ccc(C(=O)Nc2ccc(Cl)c(-c3ccccn3)c2)c(Cl)c1 [vismodegib] (first compound 0.075 µM, partner dose 5 µM)	62.1%	47.9%	75.4%	48.1%	121%	80.9%	66.1%	56.3%	113%	94.7%	46%	54.2%	53.9%	64.6%	84.9%	47.5%	90.3%	75.3%	69.6%	74.3%
C[C@]1(O)C[C@@H](c2nc(-c3ccc4ccc(-c5ccccc5)nc4c3)c3c(N)nccn32)C1 + CC1(C)NC(=O)N(c2ccc([N+](=O)[O-])c(C(F)(F)F)c2)C1=O [nilutamide] (first compound 2 µM, partner dose 5 µM)	76.9%	96.9%	86.2%	98.8%	83.1%	87.1%	123%	81.2%	126%	104%	83.8%	81.7%	88.9%	57.4%	87.3%	102%	107%	118%	101%	75%
